Test results taken from the supplement of paper PMC10369915.
The list shows a part of the results. Cut-off read from the data, not from the text of the source: active = 3.2 or more and inactive = the rest. Most of these values are background signal.

Assays:
Test in all cases: enrichment score (SH2-bound / input frequency) (ratio); bacterial display of known human phosphotyrosine sites (pTyr-Var adds point mutants) read by sequencing; higher = stronger binding; tyrosines were phosphorylated by kinases first
Details in all cases: peptide library: pTyr-Var
[1] = target: SHP2 C-SH2 domain E139D
[2] = target: SHP2 C-SH2 domain wild-type
[3] = target: SHP2 N-SH2 domain L43F
[4] = target: SHP2 N-SH2 domain T42A
[5] = target: SHP2 N-SH2 domain T52S
[6] = target: SHP2 N-SH2 domain wild-type
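Note: displayed peptides selected on beads carrying the immobilized SH2 domain, with library peptides lacking any tyrosine serving as negative controls.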

HCHEGYVLHGA [SVEP1_Y2921_I2922V]
enrichment score [1]: inactive: 1.9
enrichment score [2]: inactive: 1.95
enrichment score [3]: inactive: 2.18
enrichment score [4]: inactive: 1.6
enrichment score [5]: inactive: 1.72
enrichment score [6]: inactive: 1.64

QSMEPYTKQQL [STAT3_Y640_V637M]
enrichment score [1]: inactive: 0.605
enrichment score [2]: inactive: 0.455
enrichment score [3]: inactive: 0.583
enrichment score [4]: inactive: 0.594
enrichment score [5]: inactive: 0.593
enrichment score [6]: inactive: 0.69

DLQDEYDFKCK [STAT1_Y170]
enrichment score [1]: inactive: 0.791
enrichment score [2]: inactive: 0.613
enrichment score [3]: inactive: 0.722
enrichment score [4]: inactive: 0.71
enrichment score [5]: inactive: 0.664
enrichment score [6]: inactive: 0.494

RIILLYIFLKN [STXBP1_Y411]
enrichment score [1]: inactive: 2.39
enrichment score [2]: inactive: 1.82
enrichment score [3]: inactive: 1.98
enrichment score [4]: inactive: 2.17
enrichment score [5]: inactive: 2.14
enrichment score [6]: inactive: 1.99

LRYDVYGGENE [STOX1_Y610_E608D]
enrichment score [1]: inactive: 0.958
enrichment score [2]: inactive: 0.732
enrichment score [3]: inactive: 0.924
enrichment score [4]: inactive: 0.837
enrichment score [5]: inactive: 0.912
enrichment score [6]: inactive: 1.24

RIFDYYSARKA [STOX1_Y858]
enrichment score [1]: inactive: 0.602
enrichment score [2]: inactive: 0.58
enrichment score [3]: inactive: 0.489
enrichment score [4]: inactive: 0.457
enrichment score [5]: inactive: 0.52
enrichment score [6]: inactive: 0.472

SYCYRYRCAAQ [SUMF1_Y344_R349Q]
enrichment score [1]: active: 4.59
enrichment score [2]: active: 3.44
enrichment score [3]: active: 3.59
enrichment score [4]: active: 3.6
enrichment score [5]: active: 4.06
enrichment score [6]: active: 3.43

SFCFRYCCAAR [SUMF1_Y344_R345C_YF]
enrichment score [1]: inactive: 0.816
enrichment score [2]: inactive: 0.558
enrichment score [3]: inactive: 0.639
enrichment score [4]: inactive: 0.667
enrichment score [5]: inactive: 0.672
enrichment score [6]: inactive: 0.518

QSVEPYTKQQL [STAT3_Y640]
enrichment score [1]: inactive: 0.528
enrichment score [2]: inactive: 0.408
enrichment score [3]: inactive: 0.492
enrichment score [4]: inactive: 0.54
enrichment score [5]: inactive: 0.516
enrichment score [6]: inactive: 0.377

RIFDFYSARKT [STOX1_Y858_A863T_YF]
enrichment score [1]: inactive: 1.12
enrichment score [2]: inactive: 0.763
enrichment score [3]: inactive: 0.882
enrichment score [4]: inactive: 0.644
enrichment score [5]: inactive: 0.984
enrichment score [6]: inactive: 0.886

SYCYRYRCAPR [SUMF1_Y344_A348P]
enrichment score [1]: inactive: 0.236
enrichment score [2]: inactive: 0.2
enrichment score [3]: inactive: 0.152
enrichment score [4]: inactive: 0.187
enrichment score [5]: inactive: 0.264
enrichment score [6]: inactive: 0.184

QSLEPYTKQQL [STAT3_Y640_V637L]
enrichment score [1]: inactive: 0.478
enrichment score [2]: inactive: 0.54
enrichment score [3]: inactive: 0.696
enrichment score [4]: inactive: 0.54
enrichment score [5]: inactive: 0.628
enrichment score [6]: inactive: 1.39

GESKDYALHAG [SVIL_Y185_V189A]
enrichment score [1]: inactive: 0.499
enrichment score [2]: inactive: 0.525
enrichment score [3]: inactive: 0.537
enrichment score [4]: inactive: 0.447
enrichment score [5]: inactive: 0.437
enrichment score [6]: inactive: 0.473

EDDIIYTQDFT [STK11_Y362]
enrichment score [1]: inactive: 0.689
enrichment score [2]: inactive: 0.476
enrichment score [3]: inactive: 0.62
enrichment score [4]: inactive: 0.627
enrichment score [5]: inactive: 0.641
enrichment score [6]: inactive: 0.617

PKGTGCIKTEL [STAT1_Y701_Y701C]
enrichment score [1]: inactive: 1.27
enrichment score [2]: inactive: 1.14
enrichment score [3]: inactive: 0.828
enrichment score [4]: inactive: 0.733
enrichment score [5]: inactive: 0.894
enrichment score [6]: inactive: 0.93

ESMLRYDVYGG [STOX1_Y607_E608D]
enrichment score [1]: inactive: 0.989
enrichment score [2]: inactive: 0.707
enrichment score [3]: inactive: 0.736
enrichment score [4]: inactive: 0.583
enrichment score [5]: inactive: 0.782
enrichment score [6]: inactive: 0.924

ESMLRYEVYGG [STOX1_Y607]
enrichment score [1]: inactive: 0.731
enrichment score [2]: inactive: 0.792
enrichment score [3]: inactive: 0.646
enrichment score [4]: inactive: 0.643
enrichment score [5]: inactive: 0.861
enrichment score [6]: inactive: 0.825

ESMLRYEVFGG [STOX1_Y607_YF]
enrichment score [1]: inactive: 0.935
enrichment score [2]: inactive: 1.03
enrichment score [3]: inactive: 0.762
enrichment score [4]: inactive: 1.14
enrichment score [5]: inactive: 0.979
enrichment score [6]: inactive: 0.947

LLKNMYLMLDN [STAT1_Y203_K201N]
enrichment score [1]: inactive: 1.61
enrichment score [2]: inactive: 2.21
enrichment score [3]: inactive: 2.04
enrichment score [4]: active: 4.6
enrichment score [5]: inactive: 2.24
enrichment score [6]: inactive: 1.69

LGEGSYGKVKE [STK11_Y60]
enrichment score [1]: inactive: 0.805
enrichment score [2]: inactive: 0.966
enrichment score [3]: inactive: 0.695
enrichment score [4]: inactive: 0.61
enrichment score [5]: inactive: 0.587
enrichment score [6]: inactive: 0.84

HCHEGYILHGA [SVEP1_Y2921]
enrichment score [1]: inactive: 2.11
enrichment score [2]: inactive: 2.02
enrichment score [3]: inactive: 2.24
enrichment score [4]: inactive: 1.95
enrichment score [5]: inactive: 1.94
enrichment score [6]: inactive: 1.56

PLKFLYPNIDK [STAT1_Y668_YF]
enrichment score [1]: inactive: 1.44
enrichment score [2]: inactive: 1.49
enrichment score [3]: inactive: 1.49
enrichment score [4]: inactive: 1.37
enrichment score [5]: inactive: 1.45
enrichment score [6]: inactive: 1.63

VPDANYTSDEE [STK33_Y439]
enrichment score [1]: inactive: 0.397
enrichment score [2]: inactive: 0.513
enrichment score [3]: inactive: 0.492
enrichment score [4]: inactive: 0.459
enrichment score [5]: inactive: 0.469
enrichment score [6]: inactive: 0.54

IDGLEYLHSQG [STK11_Y166]
enrichment score [1]: inactive: 0.914
enrichment score [2]: inactive: 0.816
enrichment score [3]: inactive: 1.03
enrichment score [4]: inactive: 0.737
enrichment score [5]: inactive: 1
enrichment score [6]: inactive: 1.04

AAVPAYDKIRV [STXBP2_Y401]
enrichment score [1]: inactive: 0.877
enrichment score [2]: inactive: 0.949
enrichment score [3]: inactive: 0.681
enrichment score [4]: inactive: 1.11
enrichment score [5]: inactive: 0.518
enrichment score [6]: inactive: 0.905

VEDPEYAVTQP [STOML2_Y124_L129P]
enrichment score [1]: inactive: 0.404
enrichment score [2]: inactive: 0.508
enrichment score [3]: inactive: 0.55
enrichment score [4]: inactive: 0.526
enrichment score [5]: inactive: 0.667
enrichment score [6]: inactive: 0.544

SFCFRYRCAAR [SUMF1_Y344_YF]
enrichment score [1]: inactive: 0.295
enrichment score [2]: inactive: 0.258
enrichment score [3]: inactive: 0.263
enrichment score [4]: inactive: 0.331
enrichment score [5]: inactive: 0.244
enrichment score [6]: inactive: 0.249

ESMLRYDVFGG [STOX1_Y607_E608D_YF]
enrichment score [1]: inactive: 0.936
enrichment score [2]: inactive: 0.824
enrichment score [3]: inactive: 0.963
enrichment score [4]: inactive: 0.866
enrichment score [5]: inactive: 0.888
enrichment score [6]: inactive: 0.729

PVRIAYDRPRG [SUGP2_Y985]
enrichment score [1]: inactive: 0.411
enrichment score [2]: inactive: 0.244
enrichment score [3]: inactive: 0.342
enrichment score [4]: inactive: 0.36
enrichment score [5]: inactive: 0.344
enrichment score [6]: inactive: 0.386

SFCFRYRCAAW [SUMF1_Y344_R349W_YF]
enrichment score [1]: active: 5.02
enrichment score [2]: active: 3.4
enrichment score [3]: active: 3.88
enrichment score [4]: active: 3.46
enrichment score [5]: active: 3.78
enrichment score [6]: inactive: 2.86

WSQAMYPDLGP [STARD8_Y330_R327Q]
enrichment score [1]: inactive: 0.866
enrichment score [2]: inactive: 0.835
enrichment score [3]: inactive: 0.915
enrichment score [4]: inactive: 0.731
enrichment score [5]: inactive: 0.783
enrichment score [6]: inactive: 0.76

VEDPEYAVTQL [STOML2_Y124]
enrichment score [1]: inactive: 0.711
enrichment score [2]: inactive: 0.62
enrichment score [3]: inactive: 0.746
enrichment score [4]: inactive: 0.686
enrichment score [5]: inactive: 0.734
enrichment score [6]: inactive: 0.645

PLKFLYPNIDR [STAT1_Y668_K673R_YF]
enrichment score [1]: inactive: 1.38
enrichment score [2]: inactive: 1.65
enrichment score [3]: inactive: 1.54
enrichment score [4]: inactive: 1.75
enrichment score [5]: inactive: 1.65
enrichment score [6]: inactive: 1.31

IDDLEYLHSQG [STK11_Y166_G163D]
enrichment score [1]: inactive: 0.755
enrichment score [2]: inactive: 0.631
enrichment score [3]: inactive: 0.482
enrichment score [4]: inactive: 0.602
enrichment score [5]: inactive: 0.713
enrichment score [6]: inactive: 0.665

DLQDEYDFKRK [STAT1_Y170_C174R]
enrichment score [1]: inactive: 0.501
enrichment score [2]: inactive: 0.655
enrichment score [3]: inactive: 0.626
enrichment score [4]: inactive: 0.522
enrichment score [5]: inactive: 0.606
enrichment score [6]: inactive: 0.618

LLKKVYLMLDN [STAT1_Y203_M202V]
enrichment score [1]: inactive: 1.59
enrichment score [2]: inactive: 1.35
enrichment score [3]: inactive: 1.44
enrichment score [4]: inactive: 1.44
enrichment score [5]: inactive: 1.29
enrichment score [6]: inactive: 1.6

SYCYRYRCAAR [SUMF1_Y344]
enrichment score [1]: inactive: 0.211
enrichment score [2]: inactive: 0.317
enrichment score [3]: inactive: 0.185
enrichment score [4]: inactive: 0.127
enrichment score [5]: inactive: 0.331
enrichment score [6]: inactive: 0.14
